# Laboratory results taken from the RNAGym collection of RNA variant scans (doi:10.1093/nar/gkz1192).
# The source gives no read counts; variants with many changes may rest on few reads.
# B1: CPEB3 Ribozyme (parent)
# chain: UAACAGGGGGCCACAGCAGAAGCGUUCACGUCGCAGCCCCUGUCAGAUUCUGGUGAAUCUGCGAAUUCUGCUGUAUAUCUC
# Variants of: B1
# Assay: self-cleavage, relative activity (ratio to wild type); higher = more cleavage; in vitro, sequencing
# Procedure, shortened: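 Relative activity was defined as the cleaved/total read fraction for a variant divided by the same fraction for the unmutated ribozyme. CPEB3 self-cleaving ribozyme libraries were made by rounds of error-prone PCR, barcoded, and transcribed in vitro with T7 RNA polymerase for 5 hours at 37°C, and cleavage ran through transcription plus a 15 min DNase I step before EDTA. Illumina sequencing of template-switched reverse transcripts gave the reads, and DNA sequencing mapped the barcodes. Averages come from three batches, using variants with at least 5 reads.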
row,Variant,self-cleavage
1,A5G A18G U41C,0.32
2,A5G G19A A21G U41A A45U A64U A75G,0.05
3,A5G A21G U31A A77U,0.63
4,A5G A15G U72C,0.87
5,A5G C17G U48C U67A,0.25
6,A5G A18U U43C U48C,0.2
7,A5G C17A U67C,0.22
8,A5G G24A A45U,0.38
9,A5G A20G A47G,0.76
10,A5C G7A A21U A64U U69A,0.04
11,A5G G8U A15G U43G U49A U72C,0.06
12,A5G A28G U58C U66C,0
13,A5G G10A U48C U49C U54C,0.04
14,A5G G10U A13G C29A A57G A75G,0.07
15,A5G A28G U60G,0.42
16,A5C A13U U26C A28G C39A,0.46
17,A5G C44A U69A,0.35
18,A5G A28G U48G C68A,0.29
19,A5G G10A C29A C39G C59G U80C,0.05
20,C4U U54C A65U U66A U69A,0.41
21,A5C A18C A75U,0.83
22,A5G G9A A20G A35G A45C U69A,0.09
23,A5G G8A A13G G33A G52A U60C U74A,0.07
24,A5C A56U U67A A75G U76C,0.12

row,Variant,self-cleavage
1,A5G A13U U48C U67G,0.27
2,A5G C17U C40A U60G A64G A77U,0.09
3,C4U U72A U80C,1.03
4,A5G C11U C40G A65G,0.22
5,C4U U26A U41A U43A U60C U72C,0.23
6,A5G C38U U41C A57G U72C,0.19
7,A5G G10A C68U U80C,0.38
8,A5G A21G G53A U54A,0.25
9,A5G A13G A18U A47G C62U A75G,0.1
10,C4U G10U U26A U51G U78C,0.05
11,A5G A35G A77G,1.27
12,A5G C32U U43C U49C U51G U54C G70A,0.26
13,A5G C34A U51A U78C U80C,0.06
14,C4U U25C U66C U80A,0.18
15,A5C U43C U80C,0.83
16,C4U U25C U26G A56U,0.29
17,A5G A18G U25C A65G,0.09
18,A5G A20G A64G G70U,0.23
19,A5G A35G A75G,1.27
20,A5G A18G A35U,0.5
21,A5G A15G U26G U69A,0.17
22,A5G A47G A57G A77G,0.3
23,A5G C12U U51A A56U U67A,0.11
24,A5G A20G A57U,0.27

row,Variant,self-cleavage
1,A5G A57G U78C,0.25
2,A5G G8A A35G A56U A64U U66C,0.05
3,A5C A15U A20G U66C G70A U72C,0.13
4,A5G A35G U41A U49C U51C,0.06
5,A5G A65G U66C,0.12
6,A5G A20G U25C A65G,0.32
7,A5G A28U U54C U58C G73C,0.62
8,A5G A15G A18G G46A G52A C62G,0.3
9,A5G C29U U49A C71U,0.11
10,A5G C37G A57C U76C,0.31
11,A5G A28G U31C U72C,0.71
12,C4U G9C A15G A56G U60C U72C,0.04
13,A5G G7A A13G G53A A56G,0.34
14,A5G A21G U78C,0.61
15,A5G A18U U31C U67G U76C,0.24
16,A5G A21G U80A,0.27
17,A5G C17U U41C U80C,0.53
18,A5G A18U A28U U41C U49A U60A,0.09
19,A5G C11U U43C G52A,0.23
20,A5G A13U A28C U31A A45C U67A C68U,0.25
21,A5G A15G A28G U54A U78A,0.13
22,A5G A21G U51A A64G U72G,0.11
23,A5G A21G U26C G33A U54G U67C,0.06
24,A5G C11U U41C A64G,0.09

row,Variant,self-cleavage
1,A5G A20G A45G U60A,0.44
2,A5G A45G A56G U78C,0.39
3,C4U U49C U54C U80A,0.63
4,A5G A13U A15G U26A A47U A64G G70U,0.05
5,A5G C27G A47G,0.54
6,A5G C38U A56G U58C U74C U76A,0.28
7,A5G C44U G55U A65G U69A,0.3
8,A5G G8U U26C A35G,0.44
9,A5G A45G U69C A75G,0.51
10,A5C G36A C71U A75G,0.15
11,A5C A20C A45G U80C,0.45
12,A5G C14U G52U,0.92
13,A5G A15G U74C U80A,1
14,C4U G30A U43C,0.49
15,A5G A15C U41C U69C,0.35
16,A5G A35U U60C A65G,0.2
17,A5G A20G U26A U41C A64G U67C G70C,0.1
18,C4U U54G U60A U67C,0.31
19,A5C U41A U78C,0.19
20,A5G G6U A21G A64G,0.25
21,A5C C11G A45G G70C A75U,0.14
22,A5C U25C U74C,0.65
23,A5C U41A A57C,0.25
24,A5G A13G A18G U25C,0.06

row,Variant,self-cleavage
1,A5G A35U C44U,0.23
2,A5G A57G A64U U69C U80C,0.08
3,A5G A13G U26A C38U U76C,0.21
4,A5G A20G G42A U66C U69A U72C,0.09
5,A5G A35U U41C U78C,0.12
6,A5C A45G U51C C81U,0.78
7,A5G A47G U48C U80C,0.09
8,A5G A18G U31C G61A,0.09
9,A5G A56G U60A A64G,0.1
10,A5G A18G A20U A28G U43C A45G,0.68
11,A5G A21G U41C U48C A56U,0.1
12,A5G A13U U43C U60C U69C,0.28
13,A5G G30C U72A,0.11
14,A5G C11U A28G U43C,0.07
15,A5G A15G A28G U41A U51A U69C,0.09
16,A5G A18G U25A U66C,0.44
17,A5G G7C A45G,0.12
18,A5G C14U G52U A56U U78C,0.74
19,A5G A18G A35G A64G,0.56
20,A5G A18U A57G,0.31
21,A5G A15G A20U U43C U76C,0.42
22,A5G A28U C32G U69C,0.17
23,A5G A13G A15G A18U U49C U76C,0.47
24,A5G C11A A18G G46U U54G U67A,0.05

row,Variant,self-cleavage
1,A5G A20G U43A G61C C79G U80A,0.07
2,A5G A13U C50A,0.8
3,A5G A35G A56G,1.14
4,A5C C11U G19U A57G C59U,0.44
5,A5G A20U A35U,0.28
6,A5G A21G A47U A65G A75G,0.11
7,A5G G9A A57G U60A,0.07
8,A5G G7U A18U U67A U72C,0.16
9,A5C A18G A45U,0.47
10,A5G G30C A35U U66C,0.24
11,A5G G10A A13G C17U A20G A56U U66C,0.08
12,A5C C23U U41C C71U G73C U78C U80C,0.09
13,A5G A21G A77G,0.28
14,C4U U41A U43A U58A,0.16
15,A5C U31C U41C,0.72
16,A5G A35G U60A A65G,0.22
17,A5G A21G U26A G52U A57G,0.35
18,A5G A13G U49C,0.12
19,A5C U41A U67C,0.17
20,A5G A18U U54C G73U,0.34
21,A5G A56C A65G,0.28
22,A5G A20G A64G U80C,0.55
23,A5C A20U U60A,0.17
24,A5G A13C A21U U60C,0.7

row,Variant,self-cleavage
1,A5G A15C U51C,0.31
2,A5C G52A U78A,1.11
3,A5G A35G U67C,0.85
4,A5G G7U A64G,0.14
5,A5G A20U A35G U54A U72G,0.19
6,A5G C12G C44G A57G U72A U78C,0.12
7,A5C A18G U41C U54G U74A,0.25
8,A5G G24A A56U U60C,0.21
9,A5G A65G U67C,0.24
10,A5G A18U A20G U54A,0.17
11,A5C A13U U25C U78C,0.21
12,A5G C32U U43A A57G,0.1
13,A5G A20U C32U U49A A57G A64U,0.08
14,A5C A20G U31A U49C U67C,0.19
15,C4U U25A U41A,0.47
16,A5G A20U A28G U31A A65G A75G U80A,0.11
17,A5C U41A U43C U60C,0.38
18,C4U U31C U74C,1.24
19,A5G A28G G36U U58C U60C,0.06
20,A5G A15U A35U U49C,0.27
21,A5G G10A C17U,0.49
22,A5C A13G A15U A35G U67C,0.81
23,A5G A21U C50G U72G U80C,0.12
